The list shows a part of the results.
System: T1, C. trachomatis L2/434/Bu expressing GFP (CTL2-GFP)
T1 construct: L2/434/Bu GFP intracellular growth in HeLa cells
Parameters: species or system HeLa; C. trachomatis total inclusion area by high-content imaging, normalised to DMSO
Settings: total inclusion area; 28.5 h, 10 µM; inhibitor
Outline: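 High-content imaging followed the bulk GFP/resorufin measurement: fixed, Hoechst-stained cells were scored for GFP inclusions and host nuclei per well. Total inclusion area and count served as growth proxies, nuclei number as the viability proxy. MIC calculation matched the bulk assay.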

Compound	% of control remaining
COc1cc(CNc2ccc(N3CCCCC3)cc2)cc(Cl)c1OCc1cccs1 [CBK074586]	59.6214
Cc1ccc2[nH]c(SCc3nc4ccccc4c(=O)[nH]3)nc2c1 [CBK269908]	102.397
O=C(Cn1nnc(-c2ccccc2)n1)Nc1ccccc1C(=O)O [CBK264358]	108.39
Cc1nc2ccc(NC(=O)CC(c3ccccc3)c3ccccc3)cc2s1 [CBK293988]	73.5845
O=C(Cc1ccc(F)cc1Cl)N1CCn2c(nnc2C2CC2)C1 [CBK283773]	65.306
CC(C)(C)OC(=O)N1CCCC(C(=O)NC2CCCc3ccccc32)C1 (stereo not shown) [CBK305617]	58.4624
O=S(=O)(c1ccc(-c2csc(-c3cccnc3)n2)cc1)N1CCCCCC1 [CBK265502]	86.2478
O=C(O)c1cn(C2CC2)c2cc(N3CCN(C(=O)Cc4ccccc4Cl)CC3)c(F)cc2c1=O [CBK297136]	14.8386
CCOC(=O)c1cnc(SCC(=O)N2c3ccccc3SC3C=CC=CC32)nc1N (stereo not shown) [CBK269029]	107.732
COCC(=O)N[C@H]1C[C@@H](Cc2cc(C(C)(C)C)on2)C1(C)C [CBK289244]	101.347
COc1cc(C)nc(NCc2cnn(C)c2C)n1 [CBK306277]	84.7783
COc1ccc(CCN(CCN2CCOCC2)C(=O)NCc2ccc3c(c2)OCO3)cc1OC [CBK160540]	49.9531
CCC(C)(C)c1ccc(S(=O)(=O)N(CCC#N)Cc2cccnc2)cc1 [CBK043960]	84.673
CCCn1c(SCc2csc(COc3ccc(Cl)cc3)n2)n[nH]c1=O [CBK295140]	47.7791
CCOc1ccc(S(=O)(=O)N2CCCN(Cc3c[nH]c(C)n3)CC2)c2cccnc12 [CBK063031]	67.0583
COc1ccc(C(=O)N2CCC3(CCCN(Cc4nc5ccccc5[nH]4)C3)C2)cc1OC (stereo not shown) [CBK132847]	102.227
c1ccc(SCCCSc2ccccn2)cc1 [CBK021704]	36.4552
O=C(Cc1c[nH]c2ccccc12)N1CCC2(CCN(C(=O)c3cccnc3)C2)C1 (stereo not shown) [CBK131453]	98.0504
C=CCNC(=O)CCn1c(C(C)C)cc2cccnc21 [CBK283289]	78.7271
COc1ccc(CN2CCOCC2)cc1Br [CBK027346]	80.9866
Oc1noc(O)c1-c1ncc(C(F)(F)F)cc1Cl [CBK007439]	76.0935
CCc1nc2cc(NC(=O)Cn3cc(C)cn3)ccc2n1CC [CBK281608]	113.416
O=C(NCCO)c1cccc(-c2cc(N3CCCC3CO)n3nccc3n2)c1 (stereo not shown) [CBK037187]	96.373
Cc1cn([C@H]2C[C@@H](O)[C@@H](CO)O2)c(=O)nc1-n1cncn1 [CBK201235]	54.2574
c1cc2c(cc1CN1CCC(Oc3cncc(OCCN4CCOCC4)n3)C1)OCO2 (stereo not shown) [CBK084487]	76.1552
C[C@]12CN(Cc3cccs3)C[C@H]1C(=O)Nc1ccccc1C(=O)N2 [CBK284705]	116.65
O=C(COc1ccc2ccccc2c1)OCC(=O)c1ccc([N+](=O)[O-])cc1 [CBK261586]	101.975

Compound	% of control remaining
CS(=O)(=O)NCC1(c2ccccc2)CCN(S(=O)(=O)c2c(Cl)cccc2Cl)CC1 [CBK051633]	108.295
Cc1ccn(CCNC(=O)CSc2nccc3ccccc23)n1 [CBK282678]	114.418
C=CCN1C(=O)CC2(C1=O)C(=O)N(CCCn1c(=O)c3c(ncn3C)n(C)c1=O)c1ccc(OC)cc12 (stereo not shown) [CBK075701]	109.147
CCOC(=O)c1c(NC(=O)CSc2nc[nH]n2)sc2c1CCC2 [CBK267225]	83.2145
Cc1ccc(NC(=O)c2cc(NC(=O)C3C4C=CC(C4)C3C(=O)O)ccc2N2CCCCC2)cc1 (stereo not shown) [CBK265350]	93.2607
COc1ccc(NC(=O)Cc2csc(NC(C)=O)n2)cc1 [CBK287650]	70.6327
COC(=O)c1sc2ncccc2c1NS(=O)(=O)Cc1ccccc1[N+](=O)[O-] [CBK049974]	110.206
FC(F)(F)c1ccnc(SCc2ccc(Cl)c(Cl)c2)n1 [CBK103723]	76.2263
O=C(Nc1ncn(CC(=O)N2CCCCCC2)n1)c1cccc(F)c1 [CBK304904]	109.152
C1=CC2CC1CC2CN1CCC(N(CCc2ccccc2)Cc2ccccc2)CC1 (stereo not shown) [CBK264613G]	94.0847
NC(=O)C1CCN(C(=O)CCCSc2nc(-c3ccco3)cc(C(F)(F)F)n2)CC1 [CBK268844]	86.4936
Cn1c(CSCc2ccccc2F)nnc1SCC(=O)c1ccc(Br)cc1 [CBK269143]	111.22
CC(C)CN1C(=O)c2ccc(C(=O)NCc3ccc(C(=O)O)cc3)cc2C1=O [CBK286898]	57.9985
COc1ccc(S(=O)(=O)Nc2nnc(C(C)C)s2)cc1 [CBK045525]	114.624
COc1ccc(C2=CC(c3ccc(C(F)(F)F)cc3)n3nnnc3N2)cc1OC (stereo not shown) [CBK296131]	92.2312
CC(Sc1ccccn1)C(=O)Nc1ccc(S(N)(=O)=O)cc1 (stereo not shown) [CBK265579]	96.6015
COc1cc(-c2cn3ccnc3c(NC3CC3)n2)cc(OC)c1OC [CBK066184]	93.1732
O=c1[nH]c(=O)c2nnc(N/N=C\c3ccc(O)cc3)nc2[nH]1 [CBK263312]	107.448
O=C(NCCCN1CCOCC1)c1cnc(-c2ccccc2)c(-c2ccncc2)c1 [CBK036664]	105.191
Cc1ccccc1NC(=O)c1cnn2cccnc12 [CBK288217]	67.1132
COc1ccc(NC(=S)NCCCN(C)C)cc1 [CBK264292]	93.472
CCCC/C=C/c1cncc(Nc2cc(OC)c(OC)c(OC)c2)n1 [CBK065155]	110.006
CCN(CC)C(=O)CN1CCN(c2nccnc2Oc2ccc(OC)c(OC)c2)CC1 [CBK083051T]	108.3
COc1ccc(-c2ccc3c(c2)C(=O)N2CC[C@H](NC(=O)C4CCCC4)[C@H]2C(=O)N3)cc1 [CBK289330]	126.774
COc1cccc(C(c2nnnn2C(C)(C)C)N2CCN(c3cccc(Cl)c3)CC2)c1 (stereo not shown) [CBK141669]	99.3942
CC1(C)CC(NC(=O)c2cc3cccnc3[nH]2)CCO1 (stereo not shown) [CBK305467]	71.219
N#Cc1c(NC(=O)CSc2nnc(-c3ccncc3)o2)sc2c1CCCC2 [CBK266374]	111.133

Compound	% of control remaining
O=C1C2C(c3ccc(F)cc3)NC(c3ccc(F)cc3)C1C(c1ccc(F)cc1)NC2c1ccc(F)cc1 (stereo not shown) [CBK261288]	87.7473
CC(C)(C)OC(=O)c1cc(C(=O)O)ccc1O [CBK000394]	16.1414
Cc1cc(-c2cn3cc(C(=O)NCCN(C)C)nc3c(=O)n2C)c(C)o1 [CBK307160]	73.0426
Cc1ccc(C2(C(=O)N(C)CCN3CCCCC3)CCOCC2)cc1 [CBK281833]	103.01
CCN(CC)c1cc(N2CCCNCC2)ccc1S(=O)(=O)c1cccc(F)c1 [CBK018509C]	58.8897
CC(C)(C)OC(=O)N1CCN(c2cc(N)ncn2)CC1 [CBK001963]	58.8423
COc1ccc(Cc2nc(C(C)(C)C)cs2)cc1 [CBK021497B]	72.7432
O=C(COc1ccccc1)N1CCN(Cc2ccncc2)CC1 [CBK072595]	86.8736
CC(C)C(CNCc1ccn(C)c1)c1ccnn1C (stereo not shown) [CBK304822]	106.14
O=C(Cn1cnnn1)N1CCN(Cc2ccccc2)CC1 [CBK026053]	100.797
Cc1nc(C)c(CCC(=O)NC2CCSc3c(F)cccc32)c(=O)[nH]1 (stereo not shown) [CBK295601]	90.1551
Cc1[nH]c(=O)[nH]c(=O)c1N(CCO)CCO [CBK262052]	99.9342
COc1cc(C(=O)N2CCC3(CCN(C(=O)Cc4c[nH]c5ccccc45)C3)C2)cc(OC)c1OC (stereo not shown) [CBK131448]	93.0949
Cc1nc(CN2CCC3(CC2)CN(C(=O)C(C)C)c2ccccc23)cs1 [CBK131476]	102.24
CC(C)[C@@H](CO)Nc1cncc(-c2ccc(O)cc2)n1 [CBK066038]	79.6617
CC1c2ccsc2CCN1C(=O)c1ccnn1C(C)C (stereo not shown) [CBK282079]	108.859
Cc1c(-c2cc(C(=O)NC(C)C3CC4CCC3C4)on2)cnn1C (stereo not shown) [CBK281651]	81.378
O=C(Nc1ccc2n(c1=O)C[C@H]1C[C@@H]2CN(C(=O)Cc2cccs2)C1)c1ccccc1 [CBK288709]	99.6646
COc1cc(-c2cnc3[nH]c(=O)n([C@@H](CO)C(C)C)c3n2)cc(OC)c1OC [CBK064471]	120.285
Cc1cc(COc2nc3ccccc3nc2N2CCCC2)no1 [CBK115768]	87.34
O=C(NC(=S)Nc1ccc(N2CCN(Cc3ccccc3F)CC2)cc1)c1ccco1 [CBK268946]	114.281
CC(=O)c1ccc(-c2cc(C(=O)NCc3cccc(C(F)(F)F)c3)cnc2-c2ccccc2)s1 [CBK036641]	99.1291
O=c1[nH]nc(CSCc2ccccc2Cl)[nH]1 [CBK267427]	86.7377
CC(C)(C)c1ccc(S(=O)(=O)N2CCCC[C@H]2COC(=O)COCC(=O)O)cc1 [CBK200064]	80.2174
O=C1NN=C(O)C1Cc1ccccc1 (stereo not shown) [CBK067758]	98.4198

Source: PMC12040169 (PLOS Biology, 2025)
